# Reference: the antibiotic and cytotoxicity screens of Wong et al. (2023)
# The list shows a part of the results.
# Tested on: HepG2
# Test: cytotoxicity call (relative viability < 0.9)
# Conditions: 10 µM
row,Compound,cytotoxicity call
1,C[C@@H]1CN([C@H](C)CO)C(=O)c2cccc(NC(=O)c3cnccn3)c2O[C@@H]1CN(C)S(=O)(=O)c1cccs1,inactive
2,CN(C)CC#Cc1ccc([C@@H]2[C@H]3CN(C(=O)CN(C)C)CCCCN3[C@H]2CO)cc1,inactive
3,CCO/C(O)=C1/C(=O)CN(C)C1=O,inactive
4,Cc1ccc(S(=O)(=O)Nc2cccc3c2O[C@H](CN(C)Cc2ccc(Cl)c(Cl)c2)[C@@H](C)CN([C@@H](C)CO)C3=O)cc1,inactive
5,C[C@@H]1CN([C@@H](C)CO)C(=O)Cc2cc(NS(=O)(=O)c3ccc(Cl)cc3)ccc2O[C@H]1CN(C)C(=O)Nc1ccc(C(F)(F)F)cc1,inactive
6,COC(=O)[C@@]12OC[C@]34[C@H]([C@@H](O)[C@@H]1O)[C@@]1(C)CC(=O)C(=O)[C@H](C)[C@@H]1C[C@H]3OC(=O)[C@H](OC(=O)/C=C(\C)C(C)C)[C@@H]24,active
7,Cc1noc(C)c1S(=O)(=O)N(C)C[C@H]1Oc2ccc(NC(=O)NC3CCCCC3)cc2CC(=O)N([C@@H](C)CO)C[C@H]1C,inactive
8,COc1ccc(NC(=O)Nc2ccc3c(c2)C(=O)N([C@@H](C)CO)C[C@@H](C)[C@H](CN(C)C(=O)Nc2c(C)noc2C)OCCCC[C@@H](C)O3)cc1,inactive
9,COCC#Cc1ccc2c(c1)O[C@@H](CN(C)C(=O)CN(C)C)[C@@H](C)CN([C@@H](C)CO)S2(=O)=O,inactive
10,Cc1ccc(S(=O)(=O)Nc2ccc3c(c2)C(=O)N([C@H](C)CO)C[C@H](C)[C@H](CN(C)Cc2ccc(C(F)(F)F)cc2)OCCCC[C@H](C)O3)cc1,inactive
11,CCS(=O)(=O)N1CC[C@]2(CC1)CN([C@H](CO)c1c2c2ccc(cc2n1C)OC)C(=O)CN1CCOCC1,inactive
12,C[C@H](CO)N1C[C@H](C)[C@@H](CN(C)S(=O)(=O)c2cccs2)Oc2c(NC(=O)Nc3cccc4ccccc34)cccc2C1=O,inactive
13,CO[C@H]1CN(C)C(=O)c2cc(NS(=O)(=O)c3cn(C)cn3)ccc2OC[C@H](C)N(CCC(F)(F)F)C[C@H]1C,inactive
14,C[C@@H]1CCCCO[C@@H](CN(C)Cc2ccccc2)[C@@H](C)CN([C@H](C)CO)C(=O)c2cc(NC(=O)CCC(F)(F)F)ccc2O1,inactive
15,C[C@@H]1CN([C@H](C)CO)C(=O)c2cc(NC(=O)CCN3CCOCC3)ccc2O[C@H]1CN(C)S(C)(=O)=O,inactive
16,CC(C)(O)/C=C/C(=O)[C@](C)(O)[C@H]1[C@H](O)C[C@@]2(C)[C@@H]3CC=C4[C@@H](C=C(O[C@@H]5O[C@H](CO)[C@@H](O)[C@H](O)[C@H]5O)C(=O)C4(C)C)[C@]3(C)C(=O)C[C@]12C,inactive
17,C[C@@H]1CN([C@H](C)CO)C(=O)c2cc(NC(=O)Nc3ccc(C(F)(F)F)cc3)ccc2O[C@H]1CN(C)C(=O)Nc1ccccc1,inactive
18,Cc1noc(C)c1NC(=O)N(C)C[C@@H]1Oc2c(NC(=O)c3ccncc3)cccc2C(=O)N([C@H](C)CO)C[C@@H]1C,inactive
19,CNCc1nc(C(C)C)no1,inactive
20,C[C@@H]1CN([C@H](C)CO)C(=O)Cc2cc(N(C)C)ccc2O[C@H]1CN(C)C(=O)Nc1ccc2c(c1)OCO2,inactive

row,Compound,cytotoxicity call
1,C[C@@H]1CN([C@@H](C)CO)C(=O)c2cc(NC(=O)Nc3ccc4c(c3)OCO4)ccc2O[C@@H](C)CCCCO[C@@H]1CN(C)Cc1ccc(C(=O)O)cc1,inactive
2,C[C@@H]1CN([C@H](C)CO)C(=O)c2cc(NC(=O)c3ccncc3)ccc2O[C@@H]1CN(C)Cc1ccc2c(c1)OCO2,inactive
3,C[C@H]1CN([C@@H](C)CO)C(=O)c2cccc(NC(=O)CCCCCC(=O)Nc3ccccc3N)c2O[C@@H]1CN(C)C(=O)Nc1ccc(F)cc1,inactive
4,O=c1[nH]ncc2ccccc12,inactive
5,C[C@H](CO)N1C[C@H](C)[C@H](CN(C)Cc2ccc(F)cc2)Oc2cc(C#CC(C)(C)O)ccc2S1(=O)=O,inactive
6,C[C@H](CO)N1C[C@H](C)[C@@H](CN(C)Cc2ccc(Cl)c(Cl)c2)Oc2c(NS(=O)(=O)c3cccs3)cccc2C1=O,inactive
7,C[C@H](CO)N1C[C@H](C)[C@H](CN(C)C(=O)Nc2cccc3ccccc23)Oc2ccc(NC(=O)Nc3ccc4c(c3)OCO4)cc2C1=O,inactive
8,C[C@@H]1CN([C@H](C)CO)C(=O)c2cc(NC(=O)Nc3cccc4ccccc34)ccc2O[C@@H](C)CCCCO[C@H]1CN(C)Cc1ccncc1,inactive
9,CCCC(=O)Nc1ccc2c(c1)C(=O)N(C)C[C@H](OC)[C@@H](C)CN(Cc1ccc(-c3ccccn3)cc1)[C@H](C)CO2,inactive
10,COc1ccccc1-c1cnc2c(c1)C(=O)N([C@H](C)CO)C[C@H](C)[C@H](CN(C)C(=O)c1ccncc1)O2,inactive
11,C[C@@H](NC(=O)C[C@@H]1C=C[C@@H](NC(=O)CN2CCOCC2)[C@@H](CO)O1)c1ccccc1,inactive
12,CC(C)(C)NC(=O)N1CCC(CN)CC1,inactive
13,C[C@H](CO)N1C[C@H](C)[C@H](CN(C)C(=O)Nc2ccc(F)cc2)OCCCC[C@H](C)Oc2ccc(NC(=O)CCC(F)(F)F)cc2C1=O,inactive
14,N=C(NO)C(=O)Nc1ccccc1,inactive
15,CCCNC(=O)N1C[C@@H](C)[C@@H](OC)CN(C)C(=O)c2ccc(NS(=O)(=O)CC(F)(F)F)cc2OC[C@H]1C,inactive
16,C[C@@H]1CCCCO[C@@H](CN(C)Cc2ccc(C(=O)Nc3ccccc3N)cc2)[C@@H](C)CN([C@H](C)CO)C(=O)c2cc(NC(=O)Nc3ccc(F)cc3)ccc2O1,inactive
17,C[C@@H]1CN([C@@H](C)CO)C(=O)Cc2cc(NS(C)(=O)=O)ccc2O[C@@H]1CN(C)S(=O)(=O)c1cn(C)cn1,inactive
18,COc1ccc(NC(=O)Nc2ccc3c(c2)[C@H]2C[C@@H](CC(=O)NCC(F)(F)F)O[C@@H](CO)[C@H]2O3)cc1,inactive
19,O=C(O)c1nn(Cc2ccccc2)nc1C(=O)O,active
20,O=C(CN1CCOCC1)NCC[C@H]1CC[C@@H](NC(=O)Cc2ccccn2)[C@H](CO)O1,inactive
